Test results reported in the RNAGym collection of RNA variant scans (doi:10.7554/elife.90254).
The source gives no read counts; variants with many changes may rest on few reads.

B1: LINE1-mini (parent)
chain: GGCAGAGCUCAACACAGCGUGGCAAAGUGGCUGUGGCUAGACUGCC

Variants of: B1
Assay: self-cleavage, relative activity (ratio to wild type); higher = more cleavage; in vitro, sequencing; the parent is a self-cleaving ribozyme

Variant	self-cleavage
GUCAGAACUCACCACAGCCUGGUAUAGUGGUUGUGGCUAGACUGCC	0.03
GUCAGAGCUCAACACAGCGUGGCAAAGUGGCUAUGGCUAUACUGCC	0.05
GUCAGAGCUCAACACACCGUGGCAAAGUGGGUGUGGCCACACUGCA	0
GUCAGAACUCAUCACCGCGUGGCAAAGUGGCUGUGGCUAGACUGCC	0.03
GUCAGAGCUCAACACAGCGUGGCAAAGUUGCUGUAGCUAAACUGCC	0.09
GUCAGAGCUCAACACAGCGUCGCACAGUGGCUGUGGCUAGACUGCC	0.06
GUCAGAGCUCAACACAUCGUGGCAAAGUGGGUGUGGCUAGACUGCC	0.08
GUCAGAGCUCAACACAGCGUGGCAAAGUCGCUGUGGCUAGACACCC	0.01
GUCAGAGCUCAACACAGCGUGACAAAGUGGCUGUUGCUAGACUUCC	0.03
GUCAUAGCUCAACACAGCGUGGCAAAGUGGCUGUGGCUAAACUGCC	0.04
GUCAGAACUCAACACAGCGUGGCCAACUGUCUGUGGCUAGACUGCG	0.15
GUCAGAUCUCAACACAGCGUGGCAAAGUGGCAGUGACUAGACUGCC	0.02
GUCAGAUCUCAACACAGCGUGGCAAAGUGGCUGAGGCGAGACUGCC	0
GUCAGAACUCAAGACAGCGUGGCACAGUGGCUGUGGCUAGACUGCC	0.04
GUCAGAGCUCAACACAUCAUGGCAAAGUGGCUGAUGCUAGACUGCC	0.02
GUCAGACCUCAGCACAGCGUGGCAAAGUGGGUGUGGCUAGACUGCC	0.08
GUCAGAACUCAAGACAGCGUGGCAAAGUGGCUGUGGCUAGACUGUC	0.02
GUCAGAGCUCAACACAGCUUGGCUAAGUGGCUGUGGCUAGACUGCC	0.02
GUCAGAGCUCAACACAGCGUGCCAAAGUGGCUGUGGCUAGACUGCU	0.22

Variant	self-cleavage
GUCAUAGCGCAACGCAGCGUGGCAAAGUGACUGUGGCGAGACUGCC	0
GUCAGAGCUCAACACAACGUGACAAAGUGGCUGUGGCUAGACUGCC	0.02
GUCAUAGCGCAACACAGCGUGGCACAGUGGCUGUGGCUAGACUGCA	0.05
GUCAGAGCUCAACACAGCCUGGCACAGUGGCUGUGGUUAGACUGCC	0.01
GUCAGAGCUCAACACAACGUGGCAAAGUGGCUGUGGCUAGAGUUAC	0
GUCAGAGCUCAACACAGCAUGGCAAAGCCACUGUGGCUAGACUGCC	0.09
GUCAGAGCUCAACACAGCGUAGCAAAGUGGCUGUGGCUAGAGUGCA	0.03
GUCAGAGCUCAACACAGCGUGGCAAAUUGGCUGUGGCUAGAGUACC	0
GUCAUAGCUCAACACAGAGUGGCAAAGUGGCUGUGGCUAGACUGCC	0.03
GUCAGACCUCAACACAGCGUGGCAAAGUGGUUGUGGCUAGAGUGUC	0
GUCAUAGCUCAACACAGCGUGGCAAAUUGGGUGUGGCUAGACUGCC	0.02
GUCAGAGCUCAACACAGCGUAGCAAAGUGGCUGUAGCUAGACUGCC	0.11
GUCAGAGCUCAACACAGCGUGGCAAAAUGGCUGAGGCUAGACUGCC	0.03
GUCAUAGCCCAACACAGCGUGGCAAAGUCGCUGCGGCUAGACUGGC	0.03
GUCAGAGCUCAACACAGCGUGGCAAAGUUGUUGUGGCUAAACUGCC	0.06
GUCAGAGCUCAACACAUCGUGGCAAAGUGGUUGUGGGUAGACAGCC	0.07
GUCAGACCUCAAAACAGCUUGGCAAAGUGGCUCUGGCUAGACUGCC	0.02
GUCAGAGCUCAACACAGCGUGUCAAAGUGGUUGGGGCUAGACUGCC	0.01
GUCAGACCUCAACCCAGCGUGGCAAAGUGGCUGUGGCUAGACUGCC	0.02

Variant	self-cleavage
GUCAGAACUCAACCCAGAGUGGCAACGUGGCUGUGGCUAGACUACC	0.03
GUCAGAGCUCAACACAGCAUGGCCAAGUGGCUGCGGCUACACUGCC	0.01
GUCAGAGCUCAACACAGCGUGGCAAAAUGGCUAUGGCUAGACUGCC	0.04
GUCAUAGCUCAACACAGCGCGGCAAAGUGGCUGUGGCUAGACUGCC	0.01
GUCAGAGCUCAACACAGCGUGGCAAAGUAGCAGUGGCUAGACUGCC	0.03
GUCAGAGCUCAACACAUCGUGGUAAAGUGGGUGUGGCUAGACUGCA	0.21
GUCAGAGCUCAACACAGCGUGGCAAAGUAGCUGUGGUUAGACUGCC	0.02
GUCAGAGCUCAACACAGCGUGUCAAAGUUGCUGUGGCUAGACUGCC	0.05
GUCAGACCUUAACACAGCGUGGCAAAGUGCCUGUGGCUAGACUGCC	0.02
GUCAGAGCUCAACACAGCGUGUCAAAGGGGAUGUGGCUAGACUGUC	0.28
GUCAGAGCUCAACACAACGUGGCAAAGUGGCUGUGGCUAAACUGCC	0.04
GUCAGAGCUCAACACAGCGUCGCAAAGUGGCUAUGGCUAGACUGCC	0.08
GUCAGAACUCAACACAGCGUGGCAAAGUGGCUCUGGCUAGCGGGCC	0.03
GUCAGAGCUCAACACAGCCUCGCAAAGUGGCUGUGGCUAGACUCCC	0.03
GUCAGACCUCAACACAGCGUGGCAAAGAGGCUGUGGCUUGACUGCC	0.01
GUCAGAACUCAACAAAGCGUGGCAAGUUGGCUGUGGCUAGACUGCC	0.11
GUCAGAACUCAACACAGCGUGGGAAAGUGGCUGUGGCUAGACUGUC	0.06
GUCAGAUCUCAACACAGCGUGGCAAAGUGACUGUGGCUAGACUGCC	0.09
